The results in this text go back to the supplement of paper PMC4894684.

Where a name gives a salt, the structure may show the parent alone. ± gives the standard deviation of the averaged measurements. In all, about 1,000 compounds went through this assay and about 15 (2%) showed an effect of 50% or more. The list shows a part of the results.
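Note: confluent HFF monolayers, run in parallel with the Toxoplasma growth screen as a host toxicity counterscreen.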

The assay deals with HFF. Put plainly: uninfected host cell viability relative to vehicle control; higher = less host cell toxicity. The following applies: 5 µM; 72 h; oxygen 21 %.
Regarding `COC(=O)[C@@H]1CC2=CC(=O)CC[C@]2(C)[C@@]23O[C@@H]2C[C@@]2(C)[C@@H](CC[C@@]24CCC(=O)O4)[C@H]13` [Eplerenone], the “uninfected host cell viability” value was 88.14 ± 0.81%. On to `CC(C)(C)[N+]([O-])=Cc1ccc(S(=O)(=O)O)cc1S(=O)(=O)O`, for which the “uninfected host cell viability” value turned out to be 98.3 ± 1.5%.

In the case of `CCS(=O)(=O)N1CCC[C@@H]2CN3CCc4cc(OC)ccc4[C@@H]3C[C@@H]21`, the “uninfected host cell viability” value turned out to be 85.4 ± 2.9%. On to `CC(CCCCC(=O)Nc1ccc(C(F)(F)F)cc1)NCCc1cnc[nH]1` (stereo not drawn) [HTMT dimaleate], for which the “uninfected host cell viability” value stood at 91.1 ± 3.1%. As for `OCCN(CCO)c1nc(N2CCCCC2)c2nc(N(CCO)CCO)nc(N3CCCCC3)c2n1` [Dipyridamole], the “uninfected host cell viability” value turned out to be 94.4 ± 1.1%.

For the compound `CCCN(C/C=C/I)C1CCc2cccc(O)c2C1` (stereo not drawn) [8-Hydroxy-PIPAT oxalate], the “uninfected host cell viability” value is 87.24 ± 0.84%. For the compound `CC(C)[C@H](CO)Nc1nc(Nc2ccc(C(=O)O)c(Cl)c2)c2ncn(C(C)C)c2n1` [Purvalanol B], the “uninfected host cell viability” value stood at 87.6 ± 2.2%. `COc1cc(COc2cc(N)c(Cl)cc2C(=O)CCC2CCN(CCNS(C)(=O)=O)CC2)cc(OC)c1`: the “uninfected host cell viability” value is 85.1 ± 2.7%. As for `Cc1cc(C)c(S(=O)(=O)Nc2ccccc2C(F)(F)F)c(C)c1`, the “uninfected host cell viability” value was determined as 84.68 ± 0.53%. As to `Cc1ccc(=O)n(-c2ccccc2)c1` [Pirfenidone], the “uninfected host cell viability” value amounted to 85.4 ± 4.4%. Take `CCC(=O)NC1Cc2ccccc2C(c2ccccc2)C1` (stereo not drawn): the “uninfected host cell viability” value amounted to 99.58 ± 0.97%.

On to `Cl/C(=C\n1cncn1)c1ccc(Cl)cc1Cl` [Loreclezole hydrochloride], for which the “uninfected host cell viability” value worked out at 85.3 ± 1.3%.

With `CC1(C(=O)O)NCCc2cc(O)c(O)cc21` (stereo not drawn) [Salsolinol-1-carboxylic acid], the “uninfected host cell viability” value came out at 78.4 ± 4%.

For `C[C@@H](CN1CCC(Cc2ccccc2)CC1)[C@@H](O)c1ccc(O)cc1` [Ro 25-6981 maleate], the “uninfected host cell viability” value amounted to 87.48 ± 0.33%.

As for `N#Cc1cc2nc(O)c(O)nc2cc1[N+](=O)[O-]` [CNQX disodium salt], the “uninfected host cell viability” value worked out at 88.5 ± 3.2%. Turning to `COC(=O)[C@H](NC(=O)c1cc(-c2ccccc2)nc2ccccc12)c1ccccc1`, the “uninfected host cell viability” value is 88.372 ± 0.0059%. In the case of `N[C@@H](CS(=O)O)C(=O)O` [L-Cysteinesulfinic acid] it was 96.5 ± 1.4%; in that of `Nc1nc(-c2ccc(Cl)c(Cl)c2)c(-c2ccncc2)s1` [CGH 2466 dihydrochloride], 87.4 ± 1.5%; in that of `CCCCCCNC(=O)Nc1ccc(S(=O)(=O)Nc2ccc(CCNC[C@H](O)COc3ccc(O)cc3)cc2)cc1`, 83.4 ± 2.5%.

For `O=C(Nc1ccncc1)c1cc([N+](=O)[O-])ccc1Cl`, the “uninfected host cell viability” value worked out at 99.7 ± 1.5%. As to `CCn1c(=O)[nH]c2cc(Cl)c(Cl)cc21`, the “uninfected host cell viability” value was determined as 91.6 ± 0.94%. For `CC[C@@H]1C(=O)OC[C@@H]1Cc1cncn1C` [Pilocarpine hydrochloride] the value was 101 ± 2.5%; for `CC(=N)NCCCC[C@H](N)C(=O)O` [L-NIL hydrochloride], 83.99 ± 0.74%.

As to `COC(=O)C1=C(C)NC(C)=C([N+](=O)[O-])[C@H]1c1ccccc1C(F)(F)F`, the “uninfected host cell viability” value was 68.2 ± 1.7%. For `O=C(Nc1ccccc1)C12CC1C(=NO)c1ccccc1O2` (stereo not drawn), the “uninfected host cell viability” value worked out at 96.71 ± 0.12%. Take `OC[C@H]1O[C@@H](n2cnc3c(N[C@H]4CCC[C@@H]4O)ncnc32)[C@H](O)[C@@H]1O`: the “uninfected host cell viability” value was found to be 88.7 ± 6.8%. On to `COC1(C2=NCCN2)COc2ccccc2O1` (stereo not drawn), for which the “uninfected host cell viability” value was found to be 85.2 ± 2.2%.

With `COc1ccccc1N1CCN(CCCCNC(=O)c2ccc(-c3ccc(C(C)=O)cc3)cc2)CC1`, the “uninfected host cell viability” value was determined as 80.4 ± 1.5%. `CCCCCCCC/C=C\CCCCCCCC(N)=O` [Oleamide]: the “uninfected host cell viability” value was 100 ± 2%.

Regarding `NC(=O)CCCCn1ccc(NC(N)=NCC(F)(F)F)n1`, the “uninfected host cell viability” value is 85.9 ± 2.3%. Consider `COc1ccc(NS(=O)(=O)c2ccc(I)cc2)cc1N1CCN(C)CC1`, for which the “uninfected host cell viability” value amounted to 81.6 ± 2.9%. As to `COc1cccc2c1C(=O)c1c(O)c3c(c(O)c1C2=O)C[C@@](O)(C(C)=O)C[C@@H]3O[C@H]1C[C@H](N)[C@H](O)[C@H](C)O1` [Daunorubicin hydrochloride], the “uninfected host cell viability” value was 58.7 ± 6.2%.

Take `S=C(S)N1CCCC1` [Pyrrolidinedithiocarbamate ammonium]: the “uninfected host cell viability” value came to 65.8 ± 3.5%. Take `NS(=O)(=O)c1cc2c(cc1Cl)NC(C1CC3C=CC1C3)NS2(=O)=O` (stereo not drawn) [Cyclothiazide]: the “uninfected host cell viability” value turned out to be 91.88 ± 0.23%. Take `CCOc1cc(C(=O)Nc2ccc(Cl)c(-c3nc4ccccc4[nH]3)c2)cc(OCC)c1OCC`: the “uninfected host cell viability” value is 86.3 ± 2.3%. Take `CN(C)C(=O)n1nnnc1Cc1ccc(-c2ccccc2)cc1`: the “uninfected host cell viability” value was found to be 77.37 ± 0.2%.

In the case of `O=C(O)c1ccc2cc(-c3ccc(O)c(C45CC6CC(CC(C6)C4)C5)c3)ccc2c1`, the “uninfected host cell viability” value was 81.6 ± 6.6%. In the case of `CCC(NC(C)C)C(O)c1ccc(O)c2[nH]c(=O)ccc12` (stereo not drawn) [Procaterol hydrochloride] it was 87.5 ± 1.7%. On to `Oc1ccc(-c2nc(-c3ccc(F)cc3)c(-c3ccncc3)[nH]2)cc1`, for which the “uninfected host cell viability” value was 91.5 ± 1.5%. With `CC(C)C[C@H](NC(=O)N1CCCCCC1)C(=O)N[C@H](Cc1cn(C)c2ccccc12)C(=O)N[C@H](Cc1ccccn1)C(=O)O`, the “uninfected host cell viability” value was found to be 95.861 ± 0.0014%. As to `CCCCn1c(=O)c2[nH]c(C34CC5CC(CC3C5)C4)nc2n(CCCO)c1=O`, the “uninfected host cell viability” value came out at 95.1 ± 6.4%. In the case of `CS(=O)(=O)Nc1c(O)ccc2c1CCCC2C1=NCCN1` (stereo not drawn) it was 84.9 ± 2.8%; in that of `Nc1cc(N2CCCCC2)nc(N)[n+]1[O-]` [Minoxidil], 84.51 ± 0.35%.
